Sequences with one replicate were seen in a single cluster, so their values are uncertain.
The sequences below were run on ATP (assay: switch fluorescence ratio, 500 uM ATP over buffer (Cy3 cluster intensity, sum of 5 cycles each) (fold (ratio)); higher = stronger signal-on switching upon ATP binding; sequences stand for … in TCGTCGGCAGCGTCAGATGTGTATAAGAGACAGTTTTTTTTTTTTTTTTTTTTTTTTT…TC). Settings: aptamer strand: ATP DNA aptamer (quencher-CACCTGGGGGAGTATTGCGGAGGAAGG + anchor), 100 nM annealed; ATP concentration: 500 uM; one replicate.
How it was run: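 Exposure to 500 uM ATP lasted 15 min at 22 °C before imaging, and a selection-buffer image was taken beforehand, for Cy3-labelled switching-strand clusters on a modified Illumina MiSeq flow-cell annealed to 100 nM quencher-labelled ATP aptamer. Five buffer/ATP cycles were run with NaOH stripping and re-annealing between them. The fluorescence ratio per cluster is summed target-cycle over summed buffer-cycle Cy3 intensity, averaged per switch-domain sequence. Clusters outside 100-1000 RFU were excluded.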
CGGCCCTGCG was tested, and the switch fluorescence ratio was 1.
Work on CGGCCTAAAC yielded a switch fluorescence ratio of 1.1.
CGGCGACGC was tested, and the switch fluorescence ratio was 1.01.
Sequence CGGCGATTGT has a switch fluorescence ratio of 0.968.
Sequence CGGCGCGGAG has a switch fluorescence ratio of 1.08.
CGGCGCGTGG gave a switch fluorescence ratio of 1.02.
Work on CGGCGGATAG yielded a switch fluorescence ratio of 1.
In the case of CGGCGGATGG, the switch fluorescence ratio is reported as 1.04.
Work on CGGCGGGCTC yielded a switch fluorescence ratio of 1.09.
Work on CGGCGTTA yielded a switch fluorescence ratio of 1.
Work on CGGCTAATTG yielded a switch fluorescence ratio of 1.04.
For CGGCTAGATA, the switch fluorescence ratio was 0.973.
Sequence CGGCTAGGCT has a switch fluorescence ratio of 1.
With CGGCTATCCG the switch fluorescence ratio was 0.952.
With CGGCTCACGT the switch fluorescence ratio was 1.02.
With CGGCTGCAAA the switch fluorescence ratio was 2.38.
For CGGCTGCAT, the switch fluorescence ratio was 1.47.
CGGCTGCTAG showed a switch fluorescence ratio of 0.987.
For CGGCTGGGTG, the switch fluorescence ratio was 1.05.
CGGCTGTAGG gave a switch fluorescence ratio of 1.03.
In the case of CGGGAACGTT, the switch fluorescence ratio is reported as 1.01.
Work on CGGGAATG yielded a switch fluorescence ratio of 1.06.
For CGGGACTTAG, the switch fluorescence ratio was 1.03.
For CGGGATCAAA, the switch fluorescence ratio was 1.01.
CGGGATCCG gave a switch fluorescence ratio of 0.969.
CGGGATCGGA was tested, and the switch fluorescence ratio was 0.991.
CGGGATGGGC showed a switch fluorescence ratio of 1.02.
With CGGGATTTC the switch fluorescence ratio was 0.973.
CGGGCAAGAA showed a switch fluorescence ratio of 1.75.
Work on CGGGCAAGTT yielded a switch fluorescence ratio of 0.972.
CGGGCCAAAA showed a switch fluorescence ratio of 1.08.
CGGGCGAGAG gave a switch fluorescence ratio of 1.01.
CGGGCTCCTT showed a switch fluorescence ratio of 0.977.
With CGGGGACCAT the switch fluorescence ratio was 1.02.
CGGGGCGTTA showed a switch fluorescence ratio of 1.02.
For CGGGGTTCCT, the switch fluorescence ratio was 1.01.
Work on CGGGGTTTCA yielded a switch fluorescence ratio of 0.975.
In the case of CGGGGTTTCC, the switch fluorescence ratio is reported as 0.957.
CGGGTAAATT showed a switch fluorescence ratio of 0.963.
CGGGTACTGG gave a switch fluorescence ratio of 1.02.
Sequence CGGGTCCTAG has a switch fluorescence ratio of 1.03.
For CGGGTCGGTC, the switch fluorescence ratio was 0.947.
For CGGGTGAATG, the switch fluorescence ratio was 1.07.
For CGGGTGCTTC, the switch fluorescence ratio was 0.975.
In the case of CGGGTTAAAG, the switch fluorescence ratio is reported as 0.993.
Sequence CGGGTTATTT has a switch fluorescence ratio of 0.977.
CGGGTTCCTT gave a switch fluorescence ratio of 1.05.
CGGGTTGTTC was tested, and the switch fluorescence ratio was 1.04.
Sequence CGGGTTTCTG has a switch fluorescence ratio of 0.982.
Sequence CGGTAAGCAT has a switch fluorescence ratio of 1.07.
In the case of CGGTAATGCA, the switch fluorescence ratio is reported as 0.992.
CGGTACATGG showed a switch fluorescence ratio of 1.03.
CGGTACGATT showed a switch fluorescence ratio of 1.04.
Sequence CGGTACTTAC has a switch fluorescence ratio of 1.24.
Work on CGGTACTTCG yielded a switch fluorescence ratio of 0.987.
Work on CGGTAGAAAA yielded a switch fluorescence ratio of 1.03.
Sequence CGGTAGTGGG has a switch fluorescence ratio of 1.01.
Work on CGGTAGTTGC yielded a switch fluorescence ratio of 1.04.
CGGTCCAAGT was tested, and the switch fluorescence ratio was 0.946.
CGGTCGAGT showed a switch fluorescence ratio of 1.
With CGGTCGGTGA the switch fluorescence ratio was 0.975.
With CGGTCTCCCC the switch fluorescence ratio was 1.03.
Sequence CGGTGAAAGG has a switch fluorescence ratio of 0.994.
With CGGTGAAGGT the switch fluorescence ratio was 0.962.
Sequence CGGTGAATCG has a switch fluorescence ratio of 0.985.
CGGTGAGGCA showed a switch fluorescence ratio of 0.98.
For CGGTGCAGAA, the switch fluorescence ratio was 1.03.
For CGGTGCATCG, the switch fluorescence ratio was 0.979.
For CGGTGCCCTG, the switch fluorescence ratio was 1.
Sequence CGGTGCGGAT has a switch fluorescence ratio of 1.01.
In the case of CGGTTAACG, the switch fluorescence ratio is reported as 0.985.
For CGGTTACTAA, the switch fluorescence ratio was 1.01.
In the case of CGGTTATTAC, the switch fluorescence ratio is reported as 1.13.
For CGGTTCCAAG, the switch fluorescence ratio was 0.939.
With CGGTTCTCGT the switch fluorescence ratio was 1.03.
For CGGTTCTGG, the switch fluorescence ratio was 0.963.
In the case of CGGTTGATTG, the switch fluorescence ratio is reported as 0.981.
Sequence CGGTTGCATG has a switch fluorescence ratio of 1.04.
Sequence CGGTTGGACC has a switch fluorescence ratio of 0.997.
CGGTTTCGA showed a switch fluorescence ratio of 0.969.
CGGTTTTGGA gave a switch fluorescence ratio of 0.972.
CGTAAAATTC was tested, and the switch fluorescence ratio was 0.993.
CGTAAACATA was tested, and the switch fluorescence ratio was 1.02.
CGTAAAGAAT gave a switch fluorescence ratio of 1.02.
In the case of CGTAAGCCAT, the switch fluorescence ratio is reported as 0.963.
CGTAATATGT showed a switch fluorescence ratio of 1.1.
Sequence CGTAATGCGA has a switch fluorescence ratio of 1.45.
Work on CGTAATGTGC yielded a switch fluorescence ratio of 1.22.
Work on CGTAATTGCT yielded a switch fluorescence ratio of 1.08.
With CGTACACCT the switch fluorescence ratio was 1.16.
CGTACACCTT showed a switch fluorescence ratio of 1.13.
For CGTACATACT, the switch fluorescence ratio was 1.8.
Sequence CGTACCACAT has a switch fluorescence ratio of 0.991.
Work on CGTACCCTGG yielded a switch fluorescence ratio of 1.26.
In the case of CGTACGCGAG, the switch fluorescence ratio is reported as 1.04.
With CGTACGTATC the switch fluorescence ratio was 1.08.
CGTAGACCGA gave a switch fluorescence ratio of 0.999.
Sequence CGTAGAGGCT has a switch fluorescence ratio of 1.06.
With CGTAGATCCT the switch fluorescence ratio was 1.04.
CGTAGCTGCG gave a switch fluorescence ratio of 0.986.
With CGTAGGACGT the switch fluorescence ratio was 1.02.
For CGTAGGGGCA, the switch fluorescence ratio was 0.979.
With CGTAGTAAGT the switch fluorescence ratio was 1.09.
With CGTAGTAGGG the switch fluorescence ratio was 1.03.
Work on CGTAGTTCGC yielded a switch fluorescence ratio of 1.06.
For CGTAGTTTTT, the switch fluorescence ratio was 0.973.
In the case of CGTATAAGGG, the switch fluorescence ratio is reported as 0.905.
With CGTATACAAC the switch fluorescence ratio was 1.06.
In the case of CGTATATAAT, the switch fluorescence ratio is reported as 1.01.
With CGTATATAGA the switch fluorescence ratio was 1.01.
CGTATCGACT was tested, and the switch fluorescence ratio was 0.997.
CGTATCTAGT was tested, and the switch fluorescence ratio was 0.962.
In the case of CGTATTATT, the switch fluorescence ratio is reported as 0.985.
CGTATTTCA showed a switch fluorescence ratio of 1.
Sequence CGTCAAGTGT has a switch fluorescence ratio of 1.
CGTCACCCCC showed a switch fluorescence ratio of 2.31.
CGTCACCCTA showed a switch fluorescence ratio of 1.06.
With CGTCAGAGCA the switch fluorescence ratio was 1.02.
Sequence CGTCAGGTAG has a switch fluorescence ratio of 1.04.
CGTCAGGTGG showed a switch fluorescence ratio of 1.1.
With CGTCATCAGC the switch fluorescence ratio was 1.08.
In the case of CGTCATGCAG, the switch fluorescence ratio is reported as 1.06.
In the case of CGTCCCAATG, the switch fluorescence ratio is reported as 4.42.
CGTCCCGTTT showed a switch fluorescence ratio of 0.998.
CGTCCGGAGA gave a switch fluorescence ratio of 1.57.
In the case of CGTCCTTGAT, the switch fluorescence ratio is reported as 1.02.
CGTCGACATG showed a switch fluorescence ratio of 0.947.
CGTCGACGCG was tested, and the switch fluorescence ratio was 1.01.
Sequence CGTCGAGGAG has a switch fluorescence ratio of 0.962.
With CGTCGAGGCC the switch fluorescence ratio was 1.08.
For CGTCGCATGG, the switch fluorescence ratio was 1.78.
For CGTCGCTTAT, the switch fluorescence ratio was 1.21.
CGTCGCTTTC showed a switch fluorescence ratio of 0.98.
CGTCGGACCA was tested, and the switch fluorescence ratio was 0.99.
For CGTCGGCCGG, the switch fluorescence ratio was 1.03.
CGTCGGGAGG was tested, and the switch fluorescence ratio was 1.01.
CGTCGGGGTC showed a switch fluorescence ratio of 1.
In the case of CGTCGTAACT, the switch fluorescence ratio is reported as 0.981.
CGTCGTCGGT was tested, and the switch fluorescence ratio was 1.02.
Work on CGTCGTGAGA yielded a switch fluorescence ratio of 1.01.
CGTCTATC gave a switch fluorescence ratio of 1.06.
Work on CGTCTATCGG yielded a switch fluorescence ratio of 0.975.
In the case of CGTCTGCACG, the switch fluorescence ratio is reported as 1.03.
Work on CGTCTTAGAG yielded a switch fluorescence ratio of 1.03.
CGTCTTAGGT was tested, and the switch fluorescence ratio was 0.933.
For CGTCTTCGAG, the switch fluorescence ratio was 0.991.
CGTCTTTATG gave a switch fluorescence ratio of 0.981.
CGTGAAACCT gave a switch fluorescence ratio of 1.01.
CGTGAAGCTG gave a switch fluorescence ratio of 1.02.
CGTGAAGGGG showed a switch fluorescence ratio of 0.979.
Sequence CGTGACTTTA has a switch fluorescence ratio of 1.09.
CGTGAGTCCT gave a switch fluorescence ratio of 1.01.
Work on CGTGAGTGAG yielded a switch fluorescence ratio of 0.988.
CGTGCAAACG was tested, and the switch fluorescence ratio was 1.01.
With CGTGCACGTA the switch fluorescence ratio was 0.978.
Sequence CGTGCATACT has a switch fluorescence ratio of 1.45.
CGTGCCCCGT gave a switch fluorescence ratio of 1.02.
CGTGCTACGG gave a switch fluorescence ratio of 0.972.
For CGTGCTAGGG, the switch fluorescence ratio was 1.01.
CGTGGAATCG showed a switch fluorescence ratio of 1.03.
CGTGGAGATA was tested, and the switch fluorescence ratio was 1.
In the case of CGTGGATGGC, the switch fluorescence ratio is reported as 0.94.
Work on CGTGGATTAA yielded a switch fluorescence ratio of 0.95.
CGTGGCCAT was tested, and the switch fluorescence ratio was 1.
Sequence CGTGGGACCG has a switch fluorescence ratio of 1.01.
For CGTGGGATCC, the switch fluorescence ratio was 1.
Sequence CGTGGGCCGC has a switch fluorescence ratio of 1.03.
For CGTGGGGG, the switch fluorescence ratio was 0.989.
With CGTGGTTGAC the switch fluorescence ratio was 1.01.
Sequence CGTGTCAAGG has a switch fluorescence ratio of 0.991.
With CGTGTGCACT the switch fluorescence ratio was 1.02.
With CGTGTGCGTC the switch fluorescence ratio was 1.08.
For CGTGTGGATG, the switch fluorescence ratio was 1.03.
With CGTTAAGAGC the switch fluorescence ratio was 1.02.
CGTTAATTGT gave a switch fluorescence ratio of 1.02.
CGTTACACAG showed a switch fluorescence ratio of 0.977.
Sequence CGTTAGACCG has a switch fluorescence ratio of 0.999.
Work on CGTTAGAGA yielded a switch fluorescence ratio of 0.964.
In the case of CGTTAGGAGA, the switch fluorescence ratio is reported as 0.986.
CGTTATTAAG gave a switch fluorescence ratio of 0.952.
In the case of CGTTCAAGAT, the switch fluorescence ratio is reported as 1.05.
For CGTTCATTTT, the switch fluorescence ratio was 1.03.
In the case of CGTTCCATTC, the switch fluorescence ratio is reported as 1.08.
CGTTCTACGC showed a switch fluorescence ratio of 1.11.
With CGTTGACTCA the switch fluorescence ratio was 0.98.
CGTTGATGTT showed a switch fluorescence ratio of 0.965.
CGTTGATTGT showed a switch fluorescence ratio of 0.991.
With CGTTGCTGCT the switch fluorescence ratio was 0.941.
In the case of CGTTGGAAAC, the switch fluorescence ratio is reported as 1.01.
In the case of CGTTGGCTTC, the switch fluorescence ratio is reported as 0.999.
With CGTTGGGCAT the switch fluorescence ratio was 1.04.
In the case of CGTTGTCA, the switch fluorescence ratio is reported as 1.01.
In the case of CGTTGTGGGT, the switch fluorescence ratio is reported as 0.961.
Work on CGTTGTTGAC yielded a switch fluorescence ratio of 1.04.
Work on CGTTGTTTGA yielded a switch fluorescence ratio of 0.971.
Work on CGTTTATAA yielded a switch fluorescence ratio of 0.969.
CGTTTCAATA was tested, and the switch fluorescence ratio was 1.1.
CGTTTCACGA showed a switch fluorescence ratio of 1.03.
CGTTTCAGCA showed a switch fluorescence ratio of 0.971.
Work on CGTTTCCGTA yielded a switch fluorescence ratio of 1.02.
In the case of CGTTTCTCCC, the switch fluorescence ratio is reported as 1.54.

— the supplement of paper PMC10126150
